Data reported in the BET-seq Pho4 binding data (Le et al. 2018).
This is one part of the list. Values were computed here from the reads of four pooled replicates and scatter widely.

What follows are sequences tested against T1, Pho4 (S. cerevisiae) (UniProt P07270) (assay: relative binding free energy (BET-seq); higher = weaker binding). Conditions: reference: library average.
T1 sequence: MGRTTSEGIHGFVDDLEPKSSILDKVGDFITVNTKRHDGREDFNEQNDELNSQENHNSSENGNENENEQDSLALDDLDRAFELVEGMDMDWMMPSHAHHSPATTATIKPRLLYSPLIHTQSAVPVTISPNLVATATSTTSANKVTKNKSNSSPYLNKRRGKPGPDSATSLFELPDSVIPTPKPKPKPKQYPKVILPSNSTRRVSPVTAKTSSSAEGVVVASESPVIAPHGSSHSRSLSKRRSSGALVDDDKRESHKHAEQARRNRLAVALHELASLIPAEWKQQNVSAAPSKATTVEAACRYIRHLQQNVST

Sequence | relative binding free energy [kJ/mol]
TTGAGCACGTGAATAG | 0.335
TCGTGCACGTGGGGCT | -0.837
TGCTTCACGTGATTTA | 1.51
GAGTGCACGTGTTTGT | 0.335
CGTGTCACGTGCGGAG | 0
TAGGGCACGTGTATAT | -0.46
ATAGGCACGTGTAAGT | 0.46
GGGGACACGTGTGGCT | -0.126
TTTCGCACGTGTATAA | 0
GGCCTCACGTGGTTGG | 1.09
GTGGTCACGTGATCTG | 0.753
CGGTGCACGTGAGGCG | 0.711
TGAGGCACGTGGTTGA | -0.753
TGTAGCACGTGATAGG | -0.167
AAGGTCACGTGTGTGC | 0.669
AAGGGCACGTGGGATA | -0.879
GGGAGCACGTGGACGG | 0.126
ATATACACGTGAAGAT | 1.63
GTAGTCACGTGTAAGA | 1
TAATGCACGTGTAATG | 0.209
GCTGGCACGTGATTTT | -0.167
GTTTGCACGTGTAGCG | 1
GTATTCACGTGCTGGA | 0.669
TTATACACGTGGATTA | -0.0418
TTCTGCACGTGAAGGG | 1.34
AAGGTCACGTGTCGGA | 0.0418

Sequence | relative binding free energy [kJ/mol]
TGGTTCACGTGAATAA | 1.72
ATGAGCACGTGTTTTA | -0.586
TTGATCACGTGATGAA | 1.3
TTTTGCACGTGATTAA | 0.837
TTCTTCACGTGGTAGA | 1.76
CGGGTCACGTGTTGTG | 0.628
CGTATCACGTGCGTTT | 1.05
CTTGGCACGTGTAAGG | 0
GGCTACACGTGTGGCG | 0.92
CTTATCACGTGCGGTG | 0.669
GTGCTCACGTGGTATT | 0.669
GAGGGCACGTGGGAAG | -0.293
GGCTACACGTGGTGCG | 0.46
AAAGTCACGTGGGATA | 0.0837
TGTATCACGTGTACGT | 0.209
TACCTCACGTGTGGTG | 1
GCATACACGTGTGGGT | 0.502
TTCTGCACGTGCGGTG | -0.335
AGCTTCACGTGGTATT | 0.753
ATTCGCACGTGCAGTT | 0.544
GGGTGCACGTGTGATC | 0.335
ATATTCACGTGCTTGT | 0.669
GGTTTCACGTGCACTT | 1.59
TTTTCCACGTGTGTTA | 0.126
AAAATCACGTGACTGG | 1.76
GAATTCACGTGTGGTT | 1.51

Sequence | relative binding free energy [kJ/mol]
TTCATCACGTGTTATT | 0.962
TTGCGCACGTGAAGTT | 0.0837
TAATTCACGTGGTTCA | 0.628
TTATGCACGTGGCTAT | -0.92
TGATTCACGTGGGGTG | 0.377
TTGCACACGTGTTGAT | 0.377
TCGGTCACGTGATTAT | 0.711
GCGGTCACGTGGGGAA | 0.335
GTGTGCACGTGGGCCG | -0.544
AGTTGCACGTGTCGAT | 0.335
TTGTGCACGTGGGTAT | -0.418
TACGGCACGTGGGAAG | -0.711
ATAGGCACGTGCGGGT | -0.711
TGGAGCACGTGAAGTG | 0.502
TTGTGCACGTGGCCGT | -0.628
AAGGTCACGTGTTGGG | 1.05
CGTATCACGTGAAGGG | 1
AATTACACGTGATGGA | 1
CAAGTCACGTGGAGGT | -0.0837
GCTAGCACGTGCGGTG | -0.502
ACAATCACGTGTGTGT | 0.753
CGAGGCACGTGGAGGA | -0.544
TATCGCACGTGAGGTG | 0.126
TCGGTCACGTGGTGTC | 0.251
GTTAGCACGTGCGCGG | -0.544
GTTTCCACGTGAGTGT | 1.09

Sequence | relative binding free energy [kJ/mol]
CTGAGCACGTGGGGGA | -1.09
ATGATCACGTGTTGAT | 0.795
AAGGACACGTGGTGTA | 0.0837
TCGTTCACGTGTTGGT | 1.3
CGTGTCACGTGTATAG | -0.0418
GCGGTCACGTGTTTTA | 0.628
CGTGTCACGTGATGTC | 1.17
GTGTTCACGTGCGTTA | 0.837
TTTGGCACGTGGAAGT | -0.0837
GGGTTCACGTGGGTAG | 1
ATATACACGTGGTTGT | -0.502
TGGGCCACGTGCGGTA | -0.502
GAAAGCACGTGGTGTG | -0.586
AGTGGCACGTGAATAT | 1
AAAGTCACGTGCGGGG | 0.335
AGCGTCACGTGTCGGT | 0.753
GTTGTCACGTGGACGT | 0.293
TTGCTCACGTGATAGT | 1.97
ATTAACACGTGTGACG | 0.586
TATTGCACGTGCTGGA | 0
TGAGTCACGTGTTCGG | 0.628
GAGGGCACGTGGGGCA | -1.51
TGGATCACGTGTGTAG | 1.09
ATGTGCACGTGAGGTC | 0.377
ATTAACACGTGAGTTG | 0.962
TGTCTCACGTGATTGA | 1.59

Sequence | relative binding free energy [kJ/mol]
CTTCGCACGTGGGGTT | -0.837
GTACTCACGTGTTTTT | 0.795
CGGGGCACGTGTGATC | -0.167
TTTTTCACGTGTCACG | 1.09
TTGGTCACGTGGCAGT | 0.586
TTAATCACGTGTGTGC | 0.837
AGCGTCACGTGGTTGG | 0.0837
TATCGCACGTGGGCGG | -0.795
TGTGTCACGTGTGTTG | 0.377
AAGGTCACGTGTTGAA | 0.795
CTAGGCACGTGATATT | -0.167
GGTAGCACGTGCAGTG | -0.711
AGGGGCACGTGTATAT | -0.0837
AGGTTCACGTGGCTTG | 1.34
TGGCCCACGTGGTGGA | -0.377
TTAATCACGTGAATAG | 1.26
ATTGGCACGTGGCCGT | -1.05
GGGGTCACGTGCAGTG | 0.753
TGATACACGTGTCTTT | 0.293
AGAAGCACGTGGATGG | 0.126
TATCGCACGTGAGTAG | 0.92
GGCTTCACGTGGTTTC | 1
CAGTTCACGTGTGTCT | 1.21
TGTTGCACGTGAAGGA | 0.879
TACAACACGTGGTGGG | -0.586
CTTATCACGTGATAGG | 0.92

Sequence | relative binding free energy [kJ/mol]
GTGCGCACGTGGCTGA | -0.502
GCTGGCACGTGGAGTT | 0.0418
TATGCCACGTGTATGT | -0.377
AGTAGCACGTGGACGG | -0.209
GGAGACACGTGTTTTT | -0.544
AGCCGCACGTGTTTTG | 0.46
ATAAGCACGTGTATTA | -0.586
TTTGGCACGTGGAGAC | -0.377
ATTTCCACGTGGGCGG | 0.126
TGGGGCACGTGCATCT | -0.586
GGGGCCACGTGGCTTT | -0.544
AGATACACGTGTGAGT | 0.293
GATTACACGTGTGTTA | 0.879
GGATGCACGTGGGCGG | -1
TGGATCACGTGTGTGG | 0.879
TGTCTCACGTGACGGG | 0.46
GTTAGCACGTGATAGA | 0.293
AGCTGCACGTGGCGTG | -0.669
TGGAGCACGTGGTTCA | -0.335
GGGTGCACGTGTCCGT | -0.377
TTTCGCACGTGTGGTA | 0.0418
TTATACACGTGAGGGG | 1.26
TGCGTCACGTGGTTAA | 0
AGGCGCACGTGAGGGT | 0.377
GGGTGCACGTGACTGG | 0.46
ATTGTCACGTGGCATG | -0.251

Sequence | relative binding free energy [kJ/mol]
TATGTCACGTGGTCGG | -0.293
GAGTACACGTGGGTAA | -0.209
TTGTTCACGTGTCGAA | 0.837
TGGCACACGTGTTTTT | 0.795
TATTACACGTGGCGTT | 0.126
TTCAACACGTGTTGGT | 0.46
TCCGTCACGTGTCGTG | 1
CTTTGCACGTGAATTA | 1.05
AGCGGCACGTGAGTAG | 0.251
CGTTGCACGTGCAGTG | -0.209
GGTAGCACGTGCGGAT | -0.753
TGCGGCACGTGGGGCG | -0.962
TTGTGCACGTGCTTGT | -0.502
TGGGCCACGTGATAGA | 0.335
GTATTCACGTGGCTGT | 1.51
TGGGGCACGTGGGTGC | -0.92
TTCGGCACGTGAGTGA | 0.795
TGTTACACGTGTTTGA | 0.879
TAATTCACGTGGGTGG | 1
GTGCGCACGTGGTTCG | -0.753
GATATCACGTGTGTGT | 0.586
TTCAGCACGTGTGTGT | -0.418
GGGTTCACGTGTCGCG | 2.01
CTTAGCACGTGAGTTA | 0.962
CATTTCACGTGATCGT | 1
TGGATCACGTGTGGAT | 0.753

Sequence | relative binding free energy [kJ/mol]
CTTAGCACGTGTAGTA | -0.418
TTTCACACGTGGGTTG | -0.0418
TTTGTCACGTGGTTGA | 0.167
ATTTGCACGTGTTTGC | -0.0837
CATGGCACGTGATGAG | -0.126
GGATACACGTGATGAT | 1
TTCGACACGTGATGGT | 0.544
CTATACACGTGTGATT | 0.879
TTATACACGTGGGAGT | 0.209
GATAGCACGTGTAGTG | 0.544
ATTTTCACGTGGGTGA | 0.879
GATTTCACGTGTGCTT | 1.34
GTCTGCACGTGGGGTG | -0.753
GTGAGCACGTGGGGTT | -0.586
GGCCACACGTGTTGGT | 0.753
TGGGACACGTGTATCG | -0.669
GTGACCACGTGGAGTT | -0.0418
AAATTCACGTGGTTAT | 0.167
GGCTTCACGTGCGGGA | 0.669
GTGGTCACGTGACATG | 0.502
ATGGGCACGTGACGGT | -0.209
ATGGCCACGTGTAGGT | -0.586
AATGACACGTGGATGG | -0.628
CGGGACACGTGTGAGG | -0.335
GGTTTCACGTGCGGCG | 1.42
TGGGGCACGTGATTGT | 0.251

Sequence | relative binding free energy [kJ/mol]
GGAGGCACGTGGGGTT | -0.962
TAAATCACGTGTGGAG | 0.628
CTCTGCACGTGGTGAG | 0.126
CAAGTCACGTGATTGT | 1.42
GGGAACACGTGTGCGT | 0.0418
ATATGCACGTGAGTGT | 0.628
GGGTACACGTGATGGG | 1.21
ATTGGCACGTGTACTT | -0.209
TCGTACACGTGGGTTA | -0.711
TTGACCACGTGGCGGG | -0.335
TTGATCACGTGGTAGC | 0.293
GTAGTCACGTGCTGAG | 0.46
AAATGCACGTGCTGGT | -0.502
AACGGCACGTGGGATT | -0.837
GGCGGCACGTGTTTTG | 0.418
TATTACACGTGGTTAA | -0.251
GGACGCACGTGCGGGG | -0.544
TTATACACGTGATGTC | 0.711
ATTTCCACGTGTAGTT | 0
TAGGGCACGTGTTAAG | -0.209
TTGACCACGTGAGGGT | 0.711
TTGGCCACGTGTATGG | -0.46
